{"source": "the supplement of paper PMC8728848", "binders": {"B1": {"name": "PRKCE (Homo sapiens), Q02156 (protein)", "chain": "MVVFNGLLKIKICEAVSLKPTAWSLRHAVGPRPQTFLLDPYIALNVDDSRIGQTATKQKTNSPAWHDEFVTDVCNGRKIELAVFHDAPIGYDDFVANCTIQFEELLQNGSRHFEDWIDLEPEGRVYVIIDLSGSSGEAPKDNEERVFRERMRPRKRQGAVRRRVHQVNGHKFMATYLRQPTYCSHCRDFIWGVIGKQGYQCQVCTCVVHKRCHELIITKCAGLKKQETPDQVGSQRFSVNMPHKFGIHNYKVPTFCDHCGSLLWGLLRQGLQCKVCKMNVHRRCETNVAPNCGVDARGIAKVLADLGVTPDKITNSGQRRKKLIAGAESPQPASGSSPSEEDRSKSAPTSPCDQEIKELENNIRKALSFDNRGEEHRAASSPDGQLMSPGENGEVRQGQAKRLGLDEFNFIKVLGKGSFGKVMLAELKGKDEVYAVKVLKKDVILQDDDVDCTMTEKRILALARKHPYLTQLYCCFQTKDRLFFVMEYVNGGDLMFQIQRSRKFDEPRSRFYAAEVTSALMFLHQHGVIYRDLKLDNILLDAEGHCKLADFGMCKEGILNGVTTTTFCGTPDYIAPEILQELEYGPSVDWWALGVLMYEMMAGQPPFEADNEDDLFESILHDDVLYPVWLSKEAVSILKAFMTKNPHKRLGCVASQNGEDAIKQHPFFKEIDWVLLEQKKIKPPFKPRIKTKRDVNNFDQDFTREEPVLTLVDEAIVKQINQEEFKGFSYFGEDLMP"}}, "assay_in_all_cases": "glycan array binding signal (z-score within array); higher = stronger binding", "details_in_all_cases": "glycan notation: IUPAC condensed, linker removed", "key": {"[1]": {"target": "Fuc(a1-2)[GalNAc(a1-3)]Gal(b1-3)GlcNAc(b1-2)Man(a1-3)[Fuc(a1-2)[GalNAc(a1-3)]Gal(b1-3)GlcNAc(b1-2)Man(a1-6)]Man(b1-4)GlcNAc(b1-4)GlcNAc", "outline": "(§1)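 The binding signal is a Z-score computed within each array and averaged over linkers. Arrays of the same protein sequence at different concentrations or buffers were also averaged together. Data originate from 3228 arrays in the Consortium for Functional Glycomics database, kept only where the protein sequence was available.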"}, "[2]": {"target": "Fuc(a1-2)[GalNAc(a1-3)]Gal(b1-3)GlcNAc(b1-2)Man(a1-3)[Fuc(a1-2)[GalNAc(a1-3)]Gal(b1-3)GlcNAc(b1-2)Man(a1-6)]Man(b1-4)GlcNAc(b1-4)[Fuc(a1-6)]GlcNAc", "outline": "as §1"}, "[3]": {"target": "Fuc(a1-2)[GalNAc(a1-3)]Gal(b1-3)GlcNAc(b1-3)GalNAc", "outline": "as §1"}, "[4]": {"target": "Fuc(a1-2)[GalNAc(a1-3)]Gal(b1-3)GlcNAc(b1-6)GalNAc", "outline": "as §1"}, "[5]": {"target": "Fuc(a1-2)[GalNAc(a1-3)]Gal(b1-4)Glc", "outline": "as §1"}, "[6]": {"target": "Fuc(a1-2)[GalNAc(a1-3)]Gal(b1-4)GlcNAc", "outline": "as §1"}, "[7]": {"target": "Fuc(a1-2)[GalNAc(a1-3)]Gal(b1-4)GlcNAc(b1-2)Man(a1-3)[Fuc(a1-2)[GalNAc(a1-3)]Gal(b1-4)GlcNAc(b1-2)Man(a1-6)]Man(b1-4)GlcNAc(b1-4)GlcNAc", "outline": "as §1"}, "[8]": {"target": "Fuc(a1-2)[GalNAc(a1-3)]Gal(b1-4)GlcNAc(b1-2)Man(a1-3)[Fuc(a1-2)[GalNAc(a1-3)]Gal(b1-4)GlcNAc(b1-2)Man(a1-6)]Man(b1-4)GlcNAc(b1-4)[Fuc(a1-6)]GlcNAc", "outline": "as §1"}, "[9]": {"target": "Fuc(a1-2)[GalNAc(a1-3)]Gal(b1-4)GlcNAc(b1-3)Gal(b1-4)GlcNAc", "outline": "as §1"}, "[10]": {"target": "Fuc(a1-2)[GalNAc(a1-3)]Gal(b1-4)GlcNAc(b1-3)Gal(b1-4)GlcNAc(b1-3)Gal(b1-4)GlcNAc", "outline": "as §1"}, "[11]": {"target": "Fuc(a1-2)[GalNAc(a1-3)]Gal(b1-4)GlcNAc(b1-3)GalNAc", "outline": "as §1"}, "[12]": {"target": "Fuc(a1-2)[GalNAc(a1-3)]Gal(b1-4)[Fuc(a1-3)]GlcNAc", "outline": "as §1"}, "[13]": {"target": "Fuc(a1-2)[GalNAc(a1-3)]Gal(b1-4)[Fuc(a1-3)]GlcNAc(b1-3)GalNAc", "outline": "as §1"}, "[14]": {"target": "Fuc(a1-2)[GalNAc(a1-4)]Gal(b1-4)GlcNAc", "outline": "as §1"}, "[15]": {"target": "Fuc(a1-2)[GalNAc(b1-3)]Gal", "outline": "as §1"}, "Fuc(a1-3)GlcNAc": {"target": "Fuc(a1-3)GlcNAc", "outline": "as §1"}, "[16]": {"target": "Fuc(a1-3)[Gal(b1-4)]Glc6S", "outline": "as §1"}, "[17]": {"target": "Fuc(a1-3)[Gal(b1-4)]GlcNAc", "outline": "as §1"}, "[18]": {"target": "Fuc(a1-3)[Gal(b1-4)]GlcNAc(b1-2)Man", "outline": "as §1"}, "[19]": {"target": "Fuc(a1-3)[Gal(b1-4)]GlcNAc(b1-2)Man(a1-3)[Fuc(a1-3)[Gal(b1-4)]GlcNAc(b1-2)Man(a1-6)]Man(b1-4)GlcNAc(b1-4)GlcNAc", "outline": "as §1"}, "[20]": {"target": "Fuc(a1-3)[Gal(b1-4)]GlcNAc(b1-2)Man(a1-3)[Fuc(a1-3)[Gal(b1-4)]GlcNAc(b1-2)Man(a1-6)]Man(b1-4)GlcNAc(b1-4)[Fuc(a1-6)]GlcNAc", "outline": "as §1"}, "[21]": {"target": "Fuc(a1-3)[Gal(b1-4)]GlcNAc(b1-3)Gal(b1-3)[Fuc(a1-4)]GlcNAc", "outline": "as §1"}, "[22]": {"target": "Fuc(a1-3)[Gal(b1-4)]GlcNAc(b1-3)GalNAc", "outline": "as §1"}}, "note": "The other results are listed elsewhere or left out."}
{"binder": "B1", "values": [{"measurement": "glycan array binding signal (z-score)", "setting": "[1]", "value": 0.143}, {"measurement": "glycan array binding signal (z-score)", "setting": "[2]", "value": -0.33}, {"measurement": "glycan array binding signal (z-score)", "setting": "[3]", "value": -0.371}, {"measurement": "glycan array binding signal (z-score)", "setting": "[4]", "value": -0.271}, {"measurement": "glycan array binding signal (z-score)", "setting": "[5]", "value": -0.427}, {"measurement": "glycan array binding signal (z-score)", "setting": "[6]", "value": -0.388}, {"measurement": "glycan array binding signal (z-score)", "setting": "[7]", "value": 0.015}, {"measurement": "glycan array binding signal (z-score)", "setting": "[8]", "value": -0.252}, {"measurement": "glycan array binding signal (z-score)", "setting": "[9]", "value": -0.297}, {"measurement": "glycan array binding signal (z-score)", "setting": "[10]", "value": -0.122}, {"measurement": "glycan array binding signal (z-score)", "setting": "[11]", "value": -0.23}, {"measurement": "glycan array binding signal (z-score)", "setting": "[12]", "value": 1.03}, {"measurement": "glycan array binding signal (z-score)", "setting": "[13]", "value": -0.161}, {"measurement": "glycan array binding signal (z-score)", "setting": "[14]", "value": -0.364}, {"measurement": "glycan array binding signal (z-score)", "setting": "[15]", "value": -0.329}, {"measurement": "glycan array binding signal (z-score)", "setting": "Fuc(a1-3)GlcNAc", "value": -0.436}, {"measurement": "glycan array binding signal (z-score)", "setting": "[16]", "value": -0.386}, {"measurement": "glycan array binding signal (z-score)", "setting": "[17]", "value": -0.245}, {"measurement": "glycan array binding signal (z-score)", "setting": "[18]", "value": 2.21}, {"measurement": "glycan array binding signal (z-score)", "setting": "[19]", "value": 0.843}, {"measurement": "glycan array binding signal (z-score)", "setting": "[20]", "value": 0.033}, {"measurement": "glycan array binding signal (z-score)", "setting": "[21]", "value": -0.144}, {"measurement": "glycan array binding signal (z-score)", "setting": "[22]", "value": -0.364}]}
